Measured values from the supplement of paper PMC7826260.
The list shows a part of the results. One pool of 16,384 single-stranded DNAs met each Rep nickase domain in vitro at 3 µM enzyme and 37 °C for 1 h; the strands have 90 letters, of which the middle is given. A value is the log2 ratio of uncut reads to the pool without enzyme; uncut sequences lie near 0, cut ones below; no hit call is given. The scaling is to total reads; uncut strands gain when others are lost, and binding without cutting may add a little.

What follows are sequences tested on T1, Rep nickase domain of tomato golden mosaic virus (assay: uncleaved DNA left, log2 of reads against the no-enzyme library (log2 ratio); higher = less cleavage (more negative = more Rep cleavage of the k-mer); sequences stand for … in CTCGTCCG…ACCGGAGA).
T1 sequence (residues 1-124, tag not shown): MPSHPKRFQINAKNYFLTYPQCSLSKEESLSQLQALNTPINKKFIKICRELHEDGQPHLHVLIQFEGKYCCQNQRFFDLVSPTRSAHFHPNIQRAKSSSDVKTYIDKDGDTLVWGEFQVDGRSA
Experimental: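 A pool of 90-nt single-stranded DNAs with seven random bases just before the constant AC of the nick site (name = the seven bases) was cut by 3 µM recombinant His6-SUMO-tagged Rep nickase domain (300 nM DNA, 50 mM HEPES pH 8.0, 50 mM NaCl, 1 mM MnCl2, 1 h, 37 °C, three replicates). Uncut DNA was amplified and sequenced.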

| Sequence | uncleaved DNA left (log2) |
| --- | --- |
| GTTTCTG | -0.0185 |
| ACGGCGT | -0.108 |
| ATGAAGT | 0.0164 |
| GAAATTT | -0.381 |
| GACTAAT | 0.0398 |
| CAGACGG | 0.0803 |
| CGTCGTT | -0.0935 |
| CCGTGCG | -0.0828 |
| CACTCGC | -0.115 |
| AGGGTCA | 0.0223 |
| ATGTCTC | 0.0124 |
| CTAATTG | 0.0957 |
| GGTAGGT | 0.0649 |
| GTAGCAC | -0.107 |
| GTTTGAT | 0.186 |
| GCGCGCG | -0.0972 |
| CTAGGCA | 0.0407 |
| TTGGGTT | -0.158 |
| CACCCGT | -0.209 |
| ACTAAGG | 0.132 |

| Sequence | uncleaved DNA left (log2) |
| --- | --- |
| CCAACAG | 0.0601 |
| TGATACG | -0.122 |
| TTCTCGC | -0.239 |
| TACCGCG | 0.031 |
| GCGGCTT | -7.42e-05 |
| CACAATC | 0.0041 |
| GATTTAG | -0.0417 |
| AACTTCC | -0.128 |
| CATCACT | -0.0965 |
| TGTACAT | -0.0191 |
| AGCTTGT | 0.0884 |
| CGCCGTC | -0.105 |
| CGGCTTC | -0.216 |
| ATAGCCC | 0.13 |
| CCATGCT | -0.118 |
| CTACCAT | -0.25 |
| AGGTTGG | -0.132 |
| TCACGCA | -0.143 |
| ACGTGAG | 0.109 |
| CGCCTCG | -0.0328 |
